According to ChEMBL document CHEMBL4888484, “Replenishing the malaria drug discovery pipeline: Screening and hit evaluation of the MMV Hit Generation Library 1 (HGL1) against asexual blood stage Plasmodium falciparum ,using a nano luciferase reporter read-out” (2022):
In all, about 150,000 compounds went through this assay and about 540 (0.36%) showed an effect of 50% or more. The list shows a part of the results.

test system: Plasmodium falciparum; experiment: Primary screen in NF54 nanoGlo assay, in single point, at 2uM, 72h; a lower Z score goes with more inhibition; type: functional, Erythrocyte; settings: timepoint 72 hour

SMILES | % Inhibition | Z score
O=C(Nc1ccc(OC[C@H]2CCOC2)cc1)c1scnc1C1CC1 | -3% | 0.32
Cc1nc(NCc2ccccc2Cl)sc1S(N)(=O)=O | -9% | 1.47
NC(=O)CN1CCCN(C(=O)C2(Cc3ccccc3)CCC2)CC1 | -10% | 1.78
Cc1cc(C(=O)NC[C@@H](c2ccco2)N2CCCC2)n(C)n1 | -10% | 1.17
CCc1nc(CN(C)Cc2cc3cc4c(cc3nc2-c2ccc(F)cc2)OCO4)no1 | -10% | 1.27
C#CC[C@H](C)NC(=O)N(C)CCCN1CCCC1 | -1% | 0.19
Cc1cc(C(=O)N2CCC([C@]3(CCC(C)C)NC(=O)N(Cc4ccccn4)C3=O)CC2)no1 | 7% | -1.23
C[C@H]1c2ccsc2CCN1C(=O)Nc1ccc(F)c(NC(=O)c2ccsc2)c1 | 5% | -0.98
Cc1c(NCC(C)(C)C)cccc1C(=O)N1CC(O)(c2cnn[nH]2)C1 | -5% | 0.8
COC(=O)N1CCCC[C@H]1C(=O)N1CCc2[nH]c(-c3ccccc3)nc2C1 | 1% | -0.14
CNS(=O)(=O)CCNCc1ccc(C)c(Cl)c1 | -10% | 1.87
C[C@@H]1CN(C2CCOCC2)CCN1C(=O)Cn1cc2ccccc2n1 | -10% | 1.58
Cc1nn(CC(=O)N(C)[C@@H](C)c2ccon2)c(C)c1Cl | -28% | 2.74
COCc1ccccc1S(=O)(=O)N1CCN(c2nc[nH]n2)CC1 | -8% | 1.24
Fc1ccc(-c2noc(CN3CCC4(CC3)OCCO4)n2)cc1 | -2% | 0.34
O=C(CC1CCCCCC1)N1CCCC1 | -16% | 2.05
COC(=O)c1ccnc(N(C)C[C@H](C)c2nccs2)n1 | -16% | 1.94
c1ccc(-c2cnn3cc(CN4CCCC4)cnc23)cc1 | -7% | 1.02
CCCN(CCOC)C(=O)c1cc(CC)[nH]c(=O)c1 | -12% | 2.35
CCN(CC)c1ccc(C2=Nc3ncnn3/C2=N/Cc2ccccc2)cc1 | -14% | 1.99
O=C(Nc1ccc(N2CCCC2)c(F)c1)C(=O)Nc1ccon1 | 35% | -5.06
Cc1ccccc1C1(C(=O)Nc2nnc(NS(C)(=O)=O)s2)CCC1 | 2% | -0.27
FC(F)(F)c1cccc(-n2cnnc2Cc2nnn[nH]2)c1 | 2% | -0.33
FC(F)(F)c1cccc(-c2noc(Cc3cnn(-c4ccccc4)c3)n2)n1 | -8% | 1.06
C[C@H](NCc1ccncc1Cl)c1ccc(S(C)(=O)=O)c(F)c1 | 3% | -0.65
Cc1oc(NC(=O)c2ccc(Cl)o2)nc1C1CC1 | -8% | 1.57
O=C(CCCCC(=O)NC1CCCC1)NC1CCCC1 | 12% | -1.55

SMILES | % Inhibition | Z score
CCCN1N=C(C(=O)N2CCC(C)CC2)S(=O)(=O)c2ccc(C)cc21 | 8% | -0.98
Cn1nnc([C@](C)(O)c2ccccc2)n1 | -5% | 0.84
COc1cccnc1C(=O)N1CCS(=O)(=O)C[C@H]1C(C)(C)C | 1% | -0.1
C[C@H]1CCCN(c2nn(CC(=O)Nc3ccc4c(c3)OCCO4)c(=O)c3ccccc23)C1 | -7% | 0.98
CC(C)c1nnc(-c2ccc(S(=O)(=O)N3CCOCC3)o2)o1 | -6% | 0.83
O=C1N(Cc2ccc(F)cc2)c2ccccc2C12OCCO2 | -16% | 2.99
Cc1cc(C(=O)N2CCC[C@H](c3nc(-c4cccnc4)no3)C2)c(C)o1 | 17% | -2.2
COc1cccc(NC(=O)Nc2ccc3c(c2)CN(CCc2ccc(OC)c(OC)c2)C(=O)[C@H](C)O3)c1 | 0% | -0.08
CC(NC(C)C(C)n1cccn1)C(=O)Nc1ncccn1 (stereo not drawn) | 11% | -1.5
Cn1nccc1C(=O)N1CCCC[C@H]1c1nc(-c2ccncc2)no1 | -19% | 2.06
Cc1ccc(CCNC(=O)c2noc(-c3ccc(C)cc3)n2)cc1 | -18% | 1.61
CN(C)C(=O)N1CCN(CCCOc2ccccc2)[C@@H]2CS(=O)(=O)C[C@@H]21 | 1% | -0.26
CCC(=O)N1CCC(NC(=O)N(CC)C[C@H](O)c2cccc(O)c2)CC1 | -19% | 1.68
Cc1ccc(C)c(NC(=O)Cc2nc(Cc3ccccc3F)n[nH]2)c1 | 6% | -0.73
O=C(c1ncc2ccccc2c1O)N1CC[C@H](CC(F)(F)F)C1 | -3% | 0.47
C[C@@H](C(=O)N1CC(c2ccccn2)C1)N1CCCC1=O | -1% | 0.14
Cc1ncc(C(=O)N(C)[C@@H](C)c2ccon2)c(O)n1 | -3% | 0.5
CCOc1cc(N(C)CC2CCN(C)CC2)ncn1 | -1% | 0.09
Cc1ccc(Cl)cc1C(=O)N1CCOC[C@@H](CN(C)C)C1 | -2% | 0.33
Cc1ccc(C(=O)N2CC(C)CC(C)C2)cc1NCc1ncc[nH]1 (stereo not drawn) | 33% | -0.73
CC(C)(C)CN1CCCC(N2CCC(c3ncc[nH]3)C2)C1=O (stereo not drawn) | -9% | 0.88
OC[C@@H]1CCN(c2nc(-c3ccc(F)cc3)cs2)C[C@@H]1O | 9% | -1.22
Cc1cccc2ncnc(N(C)[C@@H](C)Cc3ccc(O)cc3)c12 | 77% | -16.2
Oc1cccc(CNCCN2CC=CCC2)c1 | -10% | 1.98
COc1cc(NC(=O)Nc2cccc(C)c2C)cc2sc(NC(=O)c3ccccc3)nc12 | 3% | -0.52
O=C(NC1CCN(S(=O)(=O)c2ccccc2)CC1)N1CCCC[C@@H]1CO | -3% | 0.52
COCCN=C([C@@H]1C(=O)Nc2ccc(C#N)cc21)N1CCN(c2ccccc2O)CC1 | -3% | 0.55
